Data as given in PubChem BioAssay AID1508623 (National Center for Advancing Translational Sciences (NCATS), 2021).
Hit rate of the full screen: of about 48,000 compounds, about 450 (0.94%) were called active. Roughly 19% stayed inconclusive and do not appear here. The call rests on the fitted dose curve; in most records, active means well fitted inhibition curve with a large enough effect; inconclusive means small, poorly fitted or top-dose-only effect; inactive means no such curve, though single readings can be large or run the other way. Some of the results follow.

Test: Primary qHTS for Identification of Small Molecule Inhibitors of Huntingtin Promoter Activity; further: nearly all actives have a fitted effect of over 50% in size
Settings: HEK293 HTT promoter firefly luciferase reporter (activity 0% = vehicle and -100% = no light), 24 h; series mostly up to 57.5 µM; activity change, negative = inhibition: at the top concentration
Procedure, shortened: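 HEK293 cells carrying firefly luciferase reporters were seeded at 2,500 per well in Opti-MEM and cultured for 24 h. They were then treated with compounds at up to 57.5 uM final for 24 h at 37 degrees C before Dual-Glo luminescence readout.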

Activity change, negative = inhibition, inactive:
CC1CCCN(C(=O)CCS(=O)(=O)c2cc3c(cc2Cl)NC(=O)CO3)C1 (stereo not given) -5.15%
CCOC(=O)c1noc2ncn(Cc3cccc(C#N)c3)c(=O)c12 1.1%
Cc1cc(Cl)ccc1NC(=O)CN1C(=O)COc2ccc(S(=O)(=O)N3CCC(C)CC3)cc21 -4.25%
Cc1c(C(=O)OC2CCC(C)CC2)[nH]c2c1C(=O)CC(c1ccccc1Cl)C2 (stereo not given) -21.1%
CCOc1ccc(CCNC(=O)CCCc2nnc3n(C)c(=O)c4sccc4n23)cc1OCC -9.64%
COc1ccc(OCC(=O)Nc2nc(-c3ccc(Br)cc3)ns2)cc1 24.9%
CCNc1nc(NC(C)CC)nc(Oc2ccc(OCC)nn2)n1 (stereo not given) 28.2%
COc1ccc(NC(=O)NCc2c(-n3cccc3)sc3c2CCCC3)c(OC)c1 -9.84%
CCc1cccc(C)c1NC(=O)NC1COc2ccccc2C1 (stereo not given) -6.88%
COc1ccc(NC(=O)CSc2nc(-c3ccc(OC)c(OC)c3)[nH]c2-c2ccc(C)cc2)cc1 -20.2%
COc1ccc(NCc2cc3cc4c(cc3n(CC(=O)Nc3ccccc3)c2=O)OCO4)cc1 -13.4%
CCOC(=O)Cc1ccc(NC(=O)N(C(C)C)C2CCN(C(C)=O)CC2)cc1 3.8%
Cn1c(=O)c2c(n3c4ccccc4nc13)NC(=O)CC2c1cccc(Cl)c1 (stereo not given) -29.9%
COC(=O)c1sccc1S(=O)(=O)N1CCN(c2ccc(C(C)=O)cc2)CC1 -10.6%
CCN(CC)CCOC(=O)c1ccc(NC(=O)c2cc3cccc(OC)c3oc2=O)cc1 25.7%
C[C@](N)(Cc1ccc(O)c(O)c1)C(=O)O
CCOCCc1nn2c(=O)cc(COC(=O)c3cccc(C)c3)nc2s1 1.2%
Cc1ccc(-c2cc(C(=O)Nc3c(C(=O)c4ccc(C)c(F)c4)oc4ccccc34)no2)cc1 -5.91%
CCOC(=O)c1c(NC(=O)CSc2cn(CCNC(=O)c3c(F)cccc3F)c3ccccc23)sc2c1CCCC2 -28.4%
COc1ccc(S(=O)(=O)NCCc2sc(-c3ccccc3)nc2C)cc1F -21.2%
Cc1ccc(Cl)cc1N1CCN(S(=O)(=O)c2ccc(-c3cnc(C4CC4)o3)cc2)CC1 -16.5%
CC(=O)c1ccc(NC(=O)c2cc(C3CC3)nc3c2c(C)nn3-c2ccc(C)cc2)cc1 -8.72%
CC(C)c1ccc(NC(=O)CN2C(=O)CCc3cc(S(=O)(=O)N4CCOCC4)ccc32)cc1 -29.3%
COc1ccc(C(=O)N2CCN(C(=O)COc3ccc(C)cc3)CC2)cc1OC 8.13%
COc1ccc(S(=O)(=O)NCCc2sc(-c3cccc(F)c3)nc2C)cc1 -28.1%
O=C(Nc1ccccc1F)C(Cc1ccccc1)N1Cc2ccccc2C1=O (stereo not given) -13.2%
COc1ccc(NC(=O)CN2CCN(c3ccccc3F)CC2)c(OC)c1 -12.9%
Cc1ccc(C(=O)/C=C/c2cn(CC(O)CN3CCCCCC3)c3ccccc23)cc1 (stereo not given) -11.7%
Cc1ccc(NC(=O)CSc2nccn2Cc2ccc3c(c2)OCO3)c(C)c1 -1.21%
c1cnc(N2CCN(Cc3ccc4c(c3)OCO4)CC2)nc1 12.7%
Cc1cc(C)c(NC(=O)CN(C)S(=O)(=O)c2ccc3c(c2)c(=O)n(C)c(=O)n3C)c(C)c1 -13.8%
CCCSCCCNC(=O)CN1C(=O)CCn2nc(-c3cn(C)c4ccccc34)cc21 -9.71%
CCC(C)NC(=O)CCC(=O)NNc1nc2ccccc2c2nc(C)nn12 (stereo not given) -1.56%
CCc1ccc(S(=O)(=O)n2ccnc2)cc1 10.8%
COCCn1c(=NC(=O)c2ccc3c(c2)OCCO3)sc2cc(NC(C)=O)ccc21 13.4%
Cc1ccc(-c2nn3c(=O)cc(CN4CCN(C(=O)c5ccc(C(C)(C)C)cc5)CC4)nc3s2)cc1 -20.9%
COc1cc(NS(=O)(=O)c2ccc(NC(=O)c3ccc(OC)c(Br)c3)cc2)nc(OC)n1 -18.4%
COc1cc(Cl)c(C)cc1Nc1nnc(-n2nc(C)cc2C)c2ccccc12 -6.88%
CCc1cccc(NC(=O)C(Cc2ccccc2)NS(=O)(=O)c2ccc3c(c2)c(=O)n(C)c(=O)n3C)c1 (stereo not given) -19.9%
COc1cccc(N2CCN(C(=O)c3c4c(nc5ccccc35)C(=O)N(C3CCCCC3)C4)CC2)c1 -9.17%
N[C@H]1CN(c2c(F)cc3c(=O)c(C(=O)O)cn(C4C[C@@H]4F)c3c2Cl)CC12CC2 (stereo not given in full) -0.923%
COc1cccc(NC(=O)C2CCCN2S(=O)(=O)c2ccc3nc(-c4ccccc4)[nH]c3c2)c1 (stereo not given) -23.8%
COc1ccc(OCc2nc(C#N)c(NCc3ccccc3Cl)o2)cc1 -26.8%
COc1ccccc1N1CCN(S(=O)(=O)c2ccc(-n3cnnn3)cc2)CC1 -21.1%
CCOC(=O)N1CCc2c(sc3c2c(=O)n(-c2ccc(CC)cc2)c(=O)n3Cc2cccc(OC)c2)C1 -4.27%
CCOc1ccc(C2c3c(oc4cc(C)c(C)cc4c3=O)C(=O)N2c2ccccn2)cc1 (stereo not given) 0.87%
CCC(C(=O)Nc1cc(C)ccc1OC)n1nnc(C(=O)OC)c1C(=O)OC (stereo not given) 15.6%
Cc1ccc(C)c(S(=O)(=O)n2nc(C)c(S(=O)(=O)N3CCC(C)CC3)c2C)c1 -3.81%
Cc1ccc(-n2nc3c(N4CCC(C(=O)N(C)Cc5ccccc5)CC4)nnc(C)c3c2C)cc1 -0.199%
CC(=O)Nc1ccc(S(=O)(=O)Nc2nc3n(n2)C(c2ccccc2)C=C(c2ccc(Cl)cc2)N3)cc1 (stereo not given) 0.994%
COc1ccccc1CNC(=O)CCC(=O)N1Cc2ccccc2Oc2ncccc21 -7.82%
CN(C)c1ccc(CN(Cc2ccco2)C(=O)c2ccc(F)cc2)cc1 -29.1%
COc1ccc(C2CC(=O)c3cnc4c(-c5ccccc5)c(C)nn4c3C2)c(OC)c1 (stereo not given) -5.87%
CCCCNC(=O)CCCn1c(=O)c2ccccc2n(Cc2ccc(Cl)cc2)c1=O -11.8%
COc1ccc2c(c1)c1c(c(=O)n(-c3ccc(OC)c(OC)c3)c(=O)n1Cc1ccc(C)cc1)n2C -7.96%
COc1ccccc1CNC(=O)CCCn1c(=O)c2cccn2c2ccccc21 -9.14%
CC(C)(C)OC(=O)N1CCC(c2c(C(=O)N3CCOCC3)cnn2-c2ccccc2Cl)CC1 2.78%
CCn1c(C(=O)N(C2CC2)C2CC2)cc2c3c(ncn3C)c(Nc3cc(C)n(C)n3)nc21 -11%
COc1ccc(-c2nc(SCC(=O)Nc3cccc(C(C)=O)c3)n[nH]2)cc1 -15%
Fc1ccc(-c2noc3ncnc(N4CCCCC4)c23)cc1 -4.73%
